Source: US11242407B2, “High-affinity anti-MERTK antibodies and uses thereof” (Rgenix, Inc., priority 2019, dated 2022)

Key:
M2 macrophages = experiment: Cytokine response of M2 macrophages; assay type: cell-based, human; conditions: 1 μg/mL, 48 hours, relative to control IgG
Method: (§1) PBMC-Derived Cell Culture and Macrophage Differentiation
(§2) The intermediate layer containing PBMCs was collected and cells washed with PBS with 2 mM EDTA three times. […] To measure cytokines, cell culture supernatants were collected and sent to Eve Technologies, Canada for Human Cytokine/Chemokine Array (HD42) analysis.

SKMEL5 melanoma cells = experiment: Viability assay with z10 (CellTiter-Glo), SKMEL5; assay type: cell-based, human; conditions: SKMEL5, day 4, versus IgG control
[1] = system: RPMI8226 multiple myeloma cells; experiment: Viability assay with z10 (CellTiter-Glo), RPMI8226; assay type: cell-based, human; conditions: RPMI8226, day 6, versus IgG control
[2] = system: Gas6-induced AKT phosphorylation; experiment: Gas6-induced AKT phosphorylation in SKMEL5 cells (Western blot); assay type: cell-based, human; conditions: 0.3 μg/mL for 2 hours, then Gas6 200 nM for 10 minutes
Method: (§3) Whole-cell lysates were prepared in RIPA buffer (Sigma, 20-188) containing protease inhibitor (Sigma, 4693159001) and phosphatase inhibitor (Sigma, P2850 and P5726). Protein concentrations were measured using BCA Protein Assay Kit (ThermoFisher, 23225). Equal protein amounts were loaded on 4-20% Tris-Glycine gel (Bio-Rad, 4561094), then transferred to PVDF membranes (Bio-Rad, 1620177). After blocking with 5% BSA, membranes were probed with primary antibodies for 1 hr at room temperature. Bound antibodies were detected with HRP-conjugated secondary antibodies (Sigma, AP187P and AP181P) and visualized by ECL Western Blotting Substrate (ThermoFisher, 32106), using ChemiDoc Imaging Systems (Bio-Rad).

MERTK [3] = molecular target: T1, MERTK (Homo sapiens, UniProt Q12866); experiment: Western blot of MERTK degradation in SKMEL5 cells; assay type: cell-based; set-up: MERTK expressing melanoma cells (SKMEL5) were incubated with increasing concentrations; host or cells: SKMEL5 human melanoma cells
T1 sequence (Q12866 21-999): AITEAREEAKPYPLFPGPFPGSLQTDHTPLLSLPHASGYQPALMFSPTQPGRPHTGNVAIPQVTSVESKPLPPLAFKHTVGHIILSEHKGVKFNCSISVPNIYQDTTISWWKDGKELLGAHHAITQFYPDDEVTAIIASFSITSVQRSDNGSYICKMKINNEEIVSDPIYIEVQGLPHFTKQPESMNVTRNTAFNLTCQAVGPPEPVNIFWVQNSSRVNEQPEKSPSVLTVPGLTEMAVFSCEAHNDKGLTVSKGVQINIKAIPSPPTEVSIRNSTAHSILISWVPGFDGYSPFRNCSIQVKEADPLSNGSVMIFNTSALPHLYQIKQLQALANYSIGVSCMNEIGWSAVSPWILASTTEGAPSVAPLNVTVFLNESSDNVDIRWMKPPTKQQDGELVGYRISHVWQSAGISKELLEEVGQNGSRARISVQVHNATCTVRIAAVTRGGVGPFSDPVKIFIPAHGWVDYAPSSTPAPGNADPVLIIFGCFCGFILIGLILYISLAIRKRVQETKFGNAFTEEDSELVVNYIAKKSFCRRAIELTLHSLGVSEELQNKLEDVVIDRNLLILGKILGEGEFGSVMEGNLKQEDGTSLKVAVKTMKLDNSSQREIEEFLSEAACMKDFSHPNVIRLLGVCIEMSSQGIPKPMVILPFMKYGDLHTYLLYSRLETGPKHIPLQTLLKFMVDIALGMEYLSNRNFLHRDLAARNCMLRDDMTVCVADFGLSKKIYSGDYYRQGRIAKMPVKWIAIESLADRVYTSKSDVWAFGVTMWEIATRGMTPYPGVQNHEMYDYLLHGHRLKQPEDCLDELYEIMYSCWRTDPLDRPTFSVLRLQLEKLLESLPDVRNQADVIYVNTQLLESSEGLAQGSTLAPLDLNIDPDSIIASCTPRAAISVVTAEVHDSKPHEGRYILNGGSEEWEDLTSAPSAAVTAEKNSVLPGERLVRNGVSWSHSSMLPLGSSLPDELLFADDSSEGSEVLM
Method: as §3

[4] = system: MERTK-expressing M1 macrophages
MERTK [5] = molecular target: T1, MERTK; experiment: Internalization assay (pHrodo-labeled z10, SKMEL5); assay type: cell-based; set-up: MERTK expressing melanoma cells (SKMEL5) were incubated with increasing concentrations; host or cells: SKMEL5 human melanoma cells; conditions: SKMEL5 cells, after 24 h of incubation
Method: Z10 and human IgG control (R&D Systems) were labeled with pHrodo Red, a pH-sensitive dye, using pHrodo Red Microscale Labeling Kit (ThermoFisher, Cat #) according to the manufacturer's instructions. Internalization of antibody was determined by flow cytometry detecting pHrodo fluorescence, which is minimal at neutral pH and maximal in acidic environments, such as the lysosomes. […] The cells were harvested with Cell Dissociation Buffer (ThermoFisher), washed twice, strained through a 70 μm filter, and resuspended in 200 μL FACS buffer (2% BSA, 10 mM EDTA, 25 mM HEPES, 0.1% sodium azide in Ca/Mg-free PBS) containing 10% human AB serum. Cells were sequentially stained with BV421-conjugated antibodies against MERTK for 20 min on ice, and then stained with Fixable Viability Dye (eFluor 780) for 20 min on ice. 5,000 event multispectral images were acquired for each sample by ImageStream Imaging Flow Cytometer (Aminis). Single color control samples were used to create a compensation matrix, and resulting compensated data were analyzed by IDEA software (Amnis) and GraphPad Prism.

CD14+ monocytes = experiment: Cytokine response of CD14+ monocytes; assay type: cell-based, human; conditions: 1 μg/mL, 24 hours, relative to control IgG
Method: as §1, §2

B1: z10: humanized anti-MERTK antibody; heavy chain SEQ ID NO: 112, light chain SEQ ID NO: 113 (antibody)
heavy: QVQLVQSGAEVKKPGASVKVSCKASGYTFTNYGMNWVRQAPGQGLEWMGWINTYTGEPTYADDFKGRVTFTTDTSTSTAYMELRSLRSDDMAVYYCARKSTVVSRYFDVWGQGTTVTVSSASTKGPSVFPLAPSSKSTSGGTAALGCLVKDYFPEPVTVSWNSGALTSGVHTFPAVLQSSGLYSLSSVVTVPSSSLGTQTYICNVNHKPSNTKVDKRV[human IgG1 Fc omitted]
light: DIQMTQSPSFLSASVGDRVTITCKASQDVGDAVTWYQQKPGKAPKLLIYWASTRHTGVPDRFSGSGSGTDFTLTISSLQPEDFATYYCQQYRSYPLTFGQGTKLEIKRTVAAPSVFIFPPSDEQLKSGTASVVCLLNNFYPREAKVQWKVDNALQSGNSQESVTEQDSKDSTYSLSSTLTLSKADYEKHKVYACEVTHQGLSSPVTKSFNRGEC
modifications: Antibody z10 Heavy Chain; Antibody z10/z11/z13 Light Chain
cytokine responses (M2 macrophages): induced cytokine responses | cell survival (viability, CellTiter-Glo 2.0) (SKMEL5 melanoma cells): inhibits cell survival | cell survival (viability, CellTiter-Glo 2.0) [1]: inhibits cell survival | Gas6-induced AKT phosphorylation [2]: prevents Gas6-induced AKT phosphorylation | human MERTK levels in the total lysate (MERTK [3]; 0.3 μg/mL for 2 hours, Gas6 experiment): decreased | degradation of human MERTK (MERTK [3]; after 4 hours, 0.3 μg/mL): substantial degradation | degradation of human MERTK (MERTK [3]; after 24 hours, 0, 0.03, 0.1, 0.3 and 1 μg/mL): substantial degradation | viability of M1 macrophages (CellTiter-Glo 2.0) [4]: neither z10 nor z10-MMAE nor z10-SN-38 nor the MERTK inhibitor UNC1062 affect the viability | MERTK signal detected on the cell surface (MERTK [5]): < 20% | location of the MERTK signal (MERTK [5]): the majority of the MERTK signal is found in the lysosome | cytokine responses (CD14+ monocytes): induced cytokine responses
